Assay: soluble on expression in E. coli; label from the status in PepcDB or PDB records

## AYPMPNPFPPFRIAGNLYYVGTDDLASYLIVTPRGNILINSDLEANVPMIKASIKKLGFKFSDTKILLISHAHFDHAAGSELIKQQTKAKYMVMDEDVSVILSGGKSDFHYANDSSTYFTQSTVDKVLHDGERVELGGTVLTAHLTPGHTRGCTTWTMKLKDHGKQYQAVIIGSIGVNPGYKLVDNITYPKIAEDYKHSIKVLESMRCDIFLGSHAGMFDLKNKYVLLSKGQNNPFVDPTGCKNYIEQKANDFYTELKKQETG
  soluble on expression in E. coli: soluble

Source: the DeepSol protein solubility set
